Patent US11866502B2, “Anti-FGFR2 antibodies and methods of use thereof” (Regeneron Pharmaceuticals, Inc., priority 2020, dated 2024)

How the values were obtained:
GA1224 PDX tumors = experiment: Gastric cancer patient derived xenograft GA1224 growth (Example 14); assay type: in vivo, BALB/c Nude mice; settings: 20 mg/kg once per week for two weeks, intravenous
Description: To assess the anti-tumor activity of FGFR2b Camptothecin-LP2 ADCs (Table 13) against patient derived gastric cancer xenografts (GA1224), tumor fragments (2-3 mm in diameter) were implanted subcutaneously into the flank of female BALB/c Nude mice (6-9 weeks old, GemPharmatech Co., Ltd). After tumors reached an average volume of 100-150 mm^3, mice were randomized into groups for treatment (n=6 mice per group).
(§1) Tumor volumes were measured twice per week over the course of the experiment. Averages (mean+/−standard deviation) of the tumor growth (change in tumor volume from the start of treatment through the end of the experiment) were calculated for each treatment group. The percent decrease of tumor growth was calculated from comparison to the isotype control antibody group, and the percent regression of tumors at the end of the experiment was calculated from comparison to the tumor volume at the start of treatment.

MFM-223 cells = experiment: In vitro cytotoxicity assay (CellTiter-Glo 2.0), MFM-223 cells; assay type: cell-based, human; settings: 6 days
Description: (§2) To test the ability of anti-FGFR2 antibody drug conjugates (ADCs) disclosed herein to kill human cell lines, an in vitro cytotoxicity assay was performed. In vitro cytotoxicity of the anti-FGFR2 ADCs, isotype control ADCs, and reference free payloads were evaluated using the CellTiter-Glo 2.0 Assay Kit (Promega, Cat #G9243), in which the quantity of ATP present is used to determine the number of viable cells in culture. The payloads Maytansinoid 1A, Maytansinoid 1A* (a cell permeable equivalent of Maytansinoid 1A), and Tubulysin 1A were tested as free payloads, and the unconjugated antibodies, including comparator antibodies, were used as controls.
(§3) Five-fold serial dilutions of anti-FGFR2 ADCs or isotype control ADCs were prepared in dilution media (Optimem+0.1% BSA) and added to cells at final concentrations ranging from 20 nM to 0.051 pM (concentrations were corrected for the DAR and are dosed based on the effective payload concentration). […] Relative light units (RLUs) were measured on an Envision luminometer (Perkin Elmer) and cell viability was expressed as a percentage of the untreated (100% viable) cells. IC50 values were determined using a four-parameter logistic equation over a 10-point dose response curve (GraphPad Prism). The maximum % kill was also determined for each test article as follows: 100−minimum percent viability.

[1] = test system: human gastric cancer PDX GA0033 tumors; experiment: Human gastric cancer PDX GA0033 tumor growth (Example 8); assay type: in vivo, BALB/c nude mice; settings: for Tumor growth in mm^3 from start of treatment (mean ± SD): subcutaneous; for Average % Decrease in Tumor Growth: vs corresponding isotype control
Description: Briefly, HuPrime® primary human gastric cancer PDX GA0033 tumor fragments 2-3 mm in diameter (Crown Bioscience) were implanted subcutaneously into the right flank of female BALB/c nude mice (5-9 weeks old, GemPharmatech). After tumors reached an average volume of 100-200 mm^3, mice were randomized into groups for treatment (n=6 mice per group). […] All ADCs were administered once per week via subcutaneous injection for two treatments, and all naked antibodies were administered twice per week via subcutaneous injection throughout the experiment. Tumor volumes were measured twice per week over the course of the experiment. Averages (mean+/−standard deviation) of the tumor growth (change in tumor volume from the start of treatment through the end of the experiment) were calculated for each treatment group. The percent decrease of tumor growth was calculated from comparison to the corresponding isotype control group, and the percent regression of tumors at the end of the experiment was calculated from comparison to the tumor volume at the start of treatment.

hFGFR2b.mmh = target: T1, hFGFR2b.mmh (Homo sapiens, UniProt P21802); experiment: Biacore surface plasmon resonance binding kinetics to hFGFR2b.mmh; settings: 25° C.
T1 construct: myc-myc-hexahistidine (MMH) (C); made in house
Description: The Biacore sensor surface was derivatized by amine coupling with a monoclonal mouse anti-human Fc antibody (REGN2567 or Jackson Cat. […] Human FGFR2b and Human FGFR2c were prepared in-house expressing a C-terminal myc-myc-hexahistidine tag ([…] NO: 57; […] NO: 58). […] Association of hFGFR2b-MMH or hFGFR2c-MMH to each of the captured ADCs and monoclonal antibodies was monitored for 4 minutes. Subsequently, dissociation was monitored for 10 minutes in HBS-EP running buffer. Anti-human Fc surface was regenerated by a brief injection of 20 mM H3PO4. All binding kinetic experiments were performed at 25° C. […] All sensorgrams were double referenced by subtracting buffer injection sensorgram signal from the corresponding analyte sensorgram, thereby removing artifacts caused by dissociation of the antibody from the capture surface. […] [formula]

SNU-16 cells = experiment: In vitro cytotoxicity assay (CellTiter-Glo 2.0), SNU-16 cells; assay type: cell-based, human; settings: 6 days
Description: as §2, §3

hFGFR2c.mmh = target: T2, hFGFR2c.mmh (Homo sapiens, UniProt P21802); experiment: Biacore surface plasmon resonance binding kinetics to hFGFR2c.mmh; settings: 25° C.
T2 construct: myc-myc-hexahistidine (MMH) (C); made in house
Description: The equilibrium dissociation constants (KD values) for hFGFR2b.mmh binding to anti-FGFR2 antibodies conjugated with Tubulysin (“tubulysin 1ALP”), Auristatin (“auristatin LP1”), or mc-VC-PAB-NMe-C3-May (“maytansinoid 1ALP”) were determined using a real-time surface plasmon resonance biosensor assay on a Biacore 2000 or a Biacore 4000 instrument. The Biacore sensor surface was derivatized by amine coupling with a monoclonal mouse anti-human Fc antibody (REGN2567 or Jackson Cat. No #109-005-098) to capture anti-FGFR2 ADC and parent unmodified antibodies expressed with human constant regions. Biacore binding studies were performed in HBS-EP running buffer (0.01M HEPES pH 7.4, 0.15M NaCl, 3 mM EDTA, 0.05% v/v Surfactant P20). […] Association of hFGFR2b-MMH or hFGFR2c-MMH to each of the captured ADCs and monoclonal antibodies was monitored for 4 minutes. Subsequently, dissociation was monitored for 10 minutes in HBS-EP running buffer. […] Kinetic association (ka) and dissociation (kd) rate constants were determined by fitting the real-time sensorgrams to a 1:1 binding model using Scrubber 2.0c curve fitting software. […] Binding dissociation equilibrium constants (KD) and dissociative half-lives (t½) were calculated from the kinetic rate constants as: […]

NCI-H716 cells = experiment: In vitro cytotoxicity assay (CellTiter-Glo 2.0), NCI-H716 cells; assay type: cell-based, human; settings: 6 days; for IC50: NCI-H716 (low FGFR2b, high FGFR2c); for Max % Kill: NCI-H716, up to 20 nM
Description: as §2
(§4) Five-fold serial dilutions of anti-FGFR2 ADCs or isotype control ADCs were prepared in dilution media (Optimem+0.1% BSA) and added to cells at final concentrations ranging from 20 nM to 0.051 pM (concentrations were corrected for the DAR and are dosed based on the effective payload concentration). Five-fold serial dilutions of free payloads were prepared in 100% DMSO, transferred to fresh dilution media, and then added to the cells at a final constant DMSO concentration of 0.2% and final payload concentrations ranging from 20 nM to 0.051 pM. The last well in each dilution series served as an untreated control and included media alone or media plus 0.2% DMSO and was plotted as a continuation of the 5-fold serial dilution. Six days later, 100 uL of CellTiter Glo 2.0 was added to each well, plates were mixed for 2 minutes on an orbital shaker, and plates were incubated at room temperature for 10 minutes. Relative light units (RLUs) were measured on an Envision luminometer (Perkin Elmer) and cell viability was expressed as a percentage of the untreated (100% viable) cells. IC50 values were determined using a four-parameter logistic equation over a 10-point dose response curve (GraphPad Prism). The maximum % kill was also determined for each test article as follows: 100−minimum percent viability.

IM-9 cells = experiment: In vitro cytotoxicity assay (CellTiter-Glo 2.0), IM-9 cells; assay type: cell-based, human; settings: 6 days; for IC50: IM-9 (non-FGFR2 expressing); for Max % Kill: IM-9, up to 20 nM
Description: as §2, §4

[2] = test system: SNU16 and SNU5 Co-Inoculated (2:1 ratio) xenografts; experiment: In vivo bystander study, SNU-16 and SNU-5 co-inoculated xenografts (Example 15); design: species or system BALB/c SCID mice; settings: 10 mg/kg single dose
Description: (§5) The ability of the anti-FGFR2 ADCs to induce tumor regression in FGFR2 negative cells through release of the payload in FGFR2 positive cells, i.e., bystander activity, was also assessed. The ability of FGFR2b Camptothecin ADC and FGFR2b Maytansinoid ADC to inhibit tumor growth was tested on FGFR2-amplified SNU-16 human gastric cancer xenografts (FIG. 11), on FGFR2-negative SNU-5 human gastric cancer xenografts (FIG. 12), or on co-inoculated SNU-16 and SNU-5 xenografts implanted at a ratio of 2:1 (FIG. 13).
(§6) Briefly, 5×10^6 SNU-16 and/or SNU-5 cancer cells (ATCC) mixed with Matrigel (BD Biosciences) were implanted subcutaneously into the flank of male BALB/c SCID mice (6-8 weeks old, Jackson Laboratory). After tumors reached an average volume of 200-250 mm^3, mice were randomized into groups for treatment (n=6 mice per group).
as §1, with “control” for “control antibody”

[3] = test system: SNU5 (FGFR2b negative cells) xenografts; experiment: In vivo bystander study, SNU-5 xenografts (Example 15); design: species or system BALB/c SCID mice; settings: 10 mg/kg single dose
Description: as §5, §6
as §1, with “control” for “control antibody”

[4] = test system: SNU16 (FGFR2b positive cells) xenografts; experiment: In vivo bystander study, SNU-16 xenografts (Example 15); design: species or system BALB/c SCID mice; settings: 10 mg/kg single dose
Description: as §5, §6
as §1, with “control” for “control antibody”

[5] = naked antibody 15 mg/kg twice per week
[6] = 3 mg/kg once per week, two treatments

T1 sequence (P21802 with tags, fused parts or gaps isoform P21802-3): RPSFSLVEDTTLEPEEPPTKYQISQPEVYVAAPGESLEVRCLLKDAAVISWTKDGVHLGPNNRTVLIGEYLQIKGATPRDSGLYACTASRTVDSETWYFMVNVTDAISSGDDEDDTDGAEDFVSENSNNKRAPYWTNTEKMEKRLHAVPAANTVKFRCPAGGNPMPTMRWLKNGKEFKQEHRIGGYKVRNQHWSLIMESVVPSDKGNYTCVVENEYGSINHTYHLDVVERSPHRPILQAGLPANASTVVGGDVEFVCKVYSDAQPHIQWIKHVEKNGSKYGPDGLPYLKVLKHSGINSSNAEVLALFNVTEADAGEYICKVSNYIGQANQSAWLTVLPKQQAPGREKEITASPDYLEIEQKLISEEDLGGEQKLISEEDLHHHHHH
T2 sequence (P21802 with tags, fused parts or gaps): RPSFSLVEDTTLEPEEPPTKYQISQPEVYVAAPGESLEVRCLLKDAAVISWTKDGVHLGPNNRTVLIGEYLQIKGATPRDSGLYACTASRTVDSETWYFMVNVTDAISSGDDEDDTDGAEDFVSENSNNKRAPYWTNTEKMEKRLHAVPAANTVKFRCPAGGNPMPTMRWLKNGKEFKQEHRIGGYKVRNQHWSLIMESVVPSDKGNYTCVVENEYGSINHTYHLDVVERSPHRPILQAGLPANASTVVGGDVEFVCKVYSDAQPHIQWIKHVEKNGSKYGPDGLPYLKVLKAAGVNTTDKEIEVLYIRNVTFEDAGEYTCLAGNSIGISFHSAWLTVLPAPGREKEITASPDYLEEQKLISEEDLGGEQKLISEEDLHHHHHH

B1: mAb1: anti-FGFR2 antibody; HCVR/LCVR SEQ ID NO: 2/10, HC/LC 18/20; N297Q heavy chain SEQ ID NO: 52 (antibody)
heavy: QVQLVESGGGVVQPGRSLRLSCAASGFTFSSYGMHWVRQAPGKGLEWVAVIWYDGSNKYYADSVKGRFTISRDNSKNTLYLQMNSLRAEDTAVYYCAREESSASGVDYWGQGTLVTVSSASTKGPSVFPLAPCSRSTSESTAALGCLVKDYFPEPVTVSWNSGALTSGVHTFPAVLQSSGLYSLSSVVTVPSSSLGTKTYTCNVDHKPSNTKVDKRV[human IgG4 Fc with S228P (EU numbers) omitted]
light: EIVLTQSPGTLSLSPGERATLSCRASQSVSTRYLAWYQQKRGQAPRLLIYGASSRATGIPDRFSGSGSGTDFTLTISRLEPEDFAVYYCQEYGSSSITFGQGTRLEIKRTVAAPSVFIFPPSDEQLKSGTASVVCLLNNFYPREAKVQWKVDNALQSGNSQESVTEQDSKDSTYSLSSTLTLSKADYEKHKVYACEVTHQGLSSPVTKSFNRGEC
Average % Tumor Regression (GA1224 PDX tumors): −1300.5%
Tumor growth in mm3 from start of treatment (mean ± SD) (GA1224 PDX tumors): 1627.8 ± 551.9 mm3
Average % Decrease in Tumor Growth (GA1224 PDX tumors; vs isotype control antibody): −47.5%
IC50 (MFM-223 cells; MFM-223 (FGFR2b positive)): > 20 nM
Max % Kill (MFM-223 cells; MFM-223, up to 20 nM): 4.5%
Tumor growth in mm^3 from start of treatment (mean ± SD) [1, 5]: 1135.3 ± 391.3 mm^3
Average % Decrease in Tumor Growth [1, 5]: 10.9%
ka (hFGFR2b.mmh): 41700 M⁻¹ s⁻¹
kd (hFGFR2b.mmh): 0.00104 s⁻¹
Antigen Bound (RU) (hFGFR2b.mmh; antibody or ADC captured on anti-human Fc surface): 70.9 RU
IC50 (SNU-16 cells; SNU-16 (FGFR2b positive)): > 20 nM
Max % Kill (SNU-16 cells; SNU-16, up to 20 nM): 5.4%
Kd (hFGFR2c.mmh): > 30 nM
Antigen Bound (RU) (hFGFR2c.mmh; antibody captured on anti-human Fc surface): 1.5 RU
IC50 (NCI-H716 cells): > 20 nM
Max % Kill (NCI-H716 cells): 7.8%
IC50 (IM-9 cells): > 20 nM
Max % Kill (IM-9 cells): 4.4%

B2: mAb1-maytansinoid 1ALP: anti-FGFR2 mAb1 conjugated to maytansinoid 1ALP (mc-VC-PAB-NMe-C3-May) (conjugate)
heavy: B1 heavy
light: B1 light
modifications: N-methyl
Tumor growth in mm^3 from start of treatment (mean ± SD) ([2]; SNU16 and SNU5 co-inoculated 2:1, subcutaneous): 181.1 ± 57.0 mm^3
Average % Tumor Regression ([2]; co-inoculated 2:1): −118.3%
Average % Decrease in Tumor Growth ([2]; co-inoculated 2:1, vs isotype control group): 68.2%
Tumor growth in mm^3 from start of treatment (mean ± SD) [1, 6]: 273.6 ± 241.9 mm^3
Average % Decrease in Tumor Growth [1, 6]: 75.1%
Tumor growth in mm^3 from start of treatment (mean ± SD) ([1]; 10 mg/kg once per week, two treatments): −104.2 ± 20.6 mm^3
Average % Tumor Regression ([1]; 10 mg/kg once per week, two treatments, vs tumor volume at start): 75.0%
ka (hFGFR2b.mmh): 24800 M⁻¹ s⁻¹
kd (hFGFR2b.mmh): 0.00104 s⁻¹
IC50 (NCI-H716 cells): > 20 nM
Max % Kill (NCI-H716 cells): 0.5%
IC50 (IM-9 cells): > 20 nM
Max % Kill (IM-9 cells): 0.0%
Average % Tumor Regression [3]: −311.8%
Tumor growth in mm^3 from start of treatment (mean ± SD) ([3]; subcutaneous): 401.6 ± 74.4 mm^3
Average % Decrease in Tumor Growth ([3]; vs isotype control group): 3.4%
Average % Tumor Regression [4]: 100%
Tumor growth in mm^3 from start of treatment (mean ± SD) ([4]; subcutaneous): −160.7 ± 28.4 mm^3
Average % Decrease in Tumor Growth ([4]; vs isotype control group): 120.4%
